# Experimental data taken from the supplement of paper PMC8728848.
# The other results are listed elsewhere or left out.
# Tests used:
# Experiment in all cases: glycan array binding signal (z-score within array); higher = stronger binding
# Conditions in all cases: glycan notation: IUPAC condensed, linker removed
# [1] = target: Gal(b1-4)GlcNAc(b1-3)Gal(b1-4)GlcNAc(b1-6)[Gal(b1-3)]GalNAc
# In short: (§1)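 The binding signal is a Z-score computed within each array and averaged over linkers. Arrays of the same protein sequence at different concentrations or buffers were also averaged together. Data originate from 3228 arrays in the Consortium for Functional Glycomics database, kept only where the protein sequence was available.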
# [2] = target: Gal(b1-4)GlcNAc(b1-3)Gal(b1-4)[Fuc(a1-3)]GlcNAc(b1-3)Gal(b1-4)[Fuc(a1-3)]GlcNAc
# In short: as §1
# [3] = target: Gal(b1-4)GlcNAc(b1-3)GalNAc
# In short: as §1
# [4] = target: Gal(b1-4)GlcNAc(b1-3)[Fuc(a1-3)GlcNAc(b1-6)]Gal(b1-4)Glc
# In short: as §1
# [5] = target: Gal(b1-4)GlcNAc(b1-3)[Gal(b1-4)GlcNAc(b1-6)]Gal(b1-4)GlcNAc
# In short: as §1
# [6] = target: Gal(b1-4)GlcNAc(b1-3)[GlcNAc(b1-6)]Gal(b1-4)GlcNAc
# In short: as §1
# [7] = target: Gal(b1-4)GlcNAc(b1-6)Gal(b1-4)GlcNAc
# In short: as §1
# [8] = target: Gal(b1-4)GlcNAc(b1-6)GalNAc
# In short: as §1
# [9] = target: Gal(b1-4)GlcNAc(b1-6)[Gal(b1-3)]GalNAc
# In short: as §1
# [10] = target: Gal(b1-4)GlcNAc(b1-6)[Gal(b1-4)GlcNAc(b1-3)]GalNAc
# In short: as §1
# Gal(b1-4)GlcNAc6P = target: Gal(b1-4)GlcNAc6P
# In short: as §1
# Gal(b1-6)Gal = target: Gal(b1-6)Gal
# In short: as §1
# Gal3S(b1-3)GalNAc = target: Gal3S(b1-3)GalNAc
# In short: as §1
# Gal3S(b1-3)GlcNAc = target: Gal3S(b1-3)GlcNAc
# In short: as §1
# [11] = target: Gal3S(b1-3)[Fuc(a1-4)]GlcNAc
# In short: as §1
# Gal3S(b1-4)Glc = target: Gal3S(b1-4)Glc
# In short: as §1
# Gal3S(b1-4)Glc6S = target: Gal3S(b1-4)Glc6S
# In short: as §1
# Gal3S(b1-4)GlcNAc = target: Gal3S(b1-4)GlcNAc
# In short: as §1
# [12] = target: Gal3S(b1-4)[Fuc(a1-3)]Glc6S
# In short: as §1
# [13] = target: Gal3S(b1-4)[Fuc(a1-3)]GlcNAc
# In short: as §1
# [14] = target: Gal3S(b1-4)[Fuc(a1-3)]GlcNAc6S
# In short: as §1
# Gal3S4S(b1-4)GlcNAc = target: Gal3S4S(b1-4)GlcNAc
# In short: as §1
# Gal3S6S(b1-4)GlcNAc = target: Gal3S6S(b1-4)GlcNAc
# In short: as §1
# Gal3S6S(b1-4)GlcNAc6S = target: Gal3S6S(b1-4)GlcNAc6S
# In short: as §1
# Gal4S(b1-4)GlcNAc = target: Gal4S(b1-4)GlcNAc
# In short: as §1
# Gal4S6S(b1-4)GlcNAc = target: Gal4S6S(b1-4)GlcNAc
# In short: as §1
# Gal6P(b1-4)GlcNAc = target: Gal6P(b1-4)GlcNAc
# In short: as §1
# Gal6S(b1-3)GlcNAc = target: Gal6S(b1-3)GlcNAc
# In short: as §1
# Gal6S(b1-3)GlcNAc6S = target: Gal6S(b1-3)GlcNAc6S
# In short: as §1
# Gal6S(b1-4)Glc = target: Gal6S(b1-4)Glc
# In short: as §1
# Gal6S(b1-4)Glc6S = target: Gal6S(b1-4)Glc6S
# In short: as §1
# Gal6S(b1-4)GlcNAc = target: Gal6S(b1-4)GlcNAc
# In short: as §1
# Gal6S(b1-4)GlcNAc6S = target: Gal6S(b1-4)GlcNAc6S
# In short: as §1
# GalNAc(a1-3)Gal = target: GalNAc(a1-3)Gal
# In short: as §1
# GalNAc(a1-3)GalNAc = target: GalNAc(a1-3)GalNAc
# In short: as §1
# [15] = target: GalNAc(a1-3)GalNAc(b1-3)Gal(a1-4)Gal(b1-4)Glc
# In short: as §1
# [16] = target: GalNAc(a1-3)GalNAc(b1-3)Gal(a1-4)Gal(b1-4)GlcNAc
# In short: as §1
# GalNAc(b1-3)Gal = target: GalNAc(b1-3)Gal
# In short: as §1
# [17] = target: GalNAc(b1-3)Gal(a1-4)Gal(b1-4)GlcNAc
# In short: as §1
# [18] = target: GalNAc(b1-3)Gal(a1-4)Gal(b1-4)GlcNAc(b1-3)Gal(b1-4)Glc
# In short: as §1
# [19] = target: GalNAc(b1-3)Gal(a1-6)Gal(b1-4)Glc
# In short: as §1
# GalNAc(b1-3)GalNAc = target: GalNAc(b1-3)GalNAc
# In short: as §1
# GalNAc(b1-3)GlcNAc = target: GalNAc(b1-3)GlcNAc
# In short: as §1
# GalNAc(b1-4)Gal(b1-4)Glc = target: GalNAc(b1-4)Gal(b1-4)Glc
# In short: as §1
# GalNAc(b1-4)GlcNAc = target: GalNAc(b1-4)GlcNAc
# In short: as §1
binder,measurement,setting,value
FimA-N1 (Actinomyces oris) (protein) MHHHHHHSSGVDLGTENLYFQSNATETPNYGNIKTDATGSLVIHKHLTGGGKDIGTPTGTAQNADDKGPAVEGVVFTAYPITDINLKDPAGWDTISNLSRTGVPDSACANPAAPTLGAHQFGTPKVSPATTKEGLATITEMPVQAYLVCETTTPGDIVQKAKPFVVTIPHPNTAAGADGQWIYDVNVYPKNEAIDVDKTIQAQK,glycan array binding signal (z-score),[1],-0.24
same,glycan array binding signal (z-score),[2],-0.434
same,glycan array binding signal (z-score),[3],0.025
same,glycan array binding signal (z-score),[4],-0.38
same,glycan array binding signal (z-score),[5],-0.398
same,glycan array binding signal (z-score),[6],-0.117
same,glycan array binding signal (z-score),[7],0.067
same,glycan array binding signal (z-score),[8],0.16
same,glycan array binding signal (z-score),[9],-0.133
same,glycan array binding signal (z-score),[10],-0.079
same,glycan array binding signal (z-score),Gal(b1-4)GlcNAc6P,0.125
same,glycan array binding signal (z-score),Gal(b1-6)Gal,0.276
same,glycan array binding signal (z-score),Gal3S(b1-3)GalNAc,0.644
same,glycan array binding signal (z-score),Gal3S(b1-3)GlcNAc,-0.055
same,glycan array binding signal (z-score),[11],0.165
same,glycan array binding signal (z-score),Gal3S(b1-4)Glc,0.253
same,glycan array binding signal (z-score),Gal3S(b1-4)Glc6S,3.06
same,glycan array binding signal (z-score),Gal3S(b1-4)GlcNAc,-0.163
same,glycan array binding signal (z-score),[12],1.9
same,glycan array binding signal (z-score),[13],0.524
same,glycan array binding signal (z-score),[14],7.57
same,glycan array binding signal (z-score),Gal3S4S(b1-4)GlcNAc,-0.215
same,glycan array binding signal (z-score),Gal3S6S(b1-4)GlcNAc,0.164
same,glycan array binding signal (z-score),Gal3S6S(b1-4)GlcNAc6S,-0.388
same,glycan array binding signal (z-score),Gal4S(b1-4)GlcNAc,-0.299
same,glycan array binding signal (z-score),Gal4S6S(b1-4)GlcNAc,0.072
same,glycan array binding signal (z-score),Gal6P(b1-4)GlcNAc,-0.222
same,glycan array binding signal (z-score),Gal6S(b1-3)GlcNAc,-0.523
same,glycan array binding signal (z-score),Gal6S(b1-3)GlcNAc6S,-0.186
same,glycan array binding signal (z-score),Gal6S(b1-4)Glc,-0.204
same,glycan array binding signal (z-score),Gal6S(b1-4)Glc6S,-0.182
same,glycan array binding signal (z-score),Gal6S(b1-4)GlcNAc,0.396
same,glycan array binding signal (z-score),Gal6S(b1-4)GlcNAc6S,-0.441
same,glycan array binding signal (z-score),GalNAc(a1-3)Gal,-0.249
same,glycan array binding signal (z-score),GalNAc(a1-3)GalNAc,-0.475
same,glycan array binding signal (z-score),[15],-0.284
same,glycan array binding signal (z-score),[16],0.084
same,glycan array binding signal (z-score),GalNAc(b1-3)Gal,-0.253
same,glycan array binding signal (z-score),[17],0.521
same,glycan array binding signal (z-score),[18],-0.399
same,glycan array binding signal (z-score),[19],-0.352
same,glycan array binding signal (z-score),GalNAc(b1-3)GalNAc,-0.3
same,glycan array binding signal (z-score),GalNAc(b1-3)GlcNAc,-0.122
same,glycan array binding signal (z-score),GalNAc(b1-4)Gal(b1-4)Glc,0.901
same,glycan array binding signal (z-score),GalNAc(b1-4)GlcNAc,-0.187
